Publication PMC8857485, “Prostate secretory protein 94 inhibits sterol binding and export by the mammalian CAP protein CRISP2 in a calcium-sensitive manner” (The Journal of Biological Chemistry, 2022)
Residue numbers refer to the chain shown, from its start. Names and notes keep the numbering of the source. These are yes or no findings as the source states them, for the method shown. For some assays here: In cells and extracts the contact can be indirect. Some results given as binding are weak or reduced against the parent protein; the word gives no strength. Where a sequence is shown, tags or fusion partners need not be part of it.

Key:
[1] = target: T1, HA-tagged CRISP2 expressed in yeast (human) (UniProt P16562); experiment: co-IP; yeast coexpressing CRISP2-HA and PSP94-FLAG grown in medium with 10 mM CaCl2; anti-HA immunoprecipitation from the culture medium, Western blot for FLAG
T1 sequence: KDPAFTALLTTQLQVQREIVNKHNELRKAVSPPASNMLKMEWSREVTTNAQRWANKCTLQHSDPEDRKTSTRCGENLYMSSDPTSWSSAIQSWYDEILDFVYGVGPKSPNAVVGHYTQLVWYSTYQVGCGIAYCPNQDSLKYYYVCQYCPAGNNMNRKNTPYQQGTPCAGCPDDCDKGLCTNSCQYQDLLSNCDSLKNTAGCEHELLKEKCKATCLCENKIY

[2] = target: T1, HA-tagged CRISP2 expressed in yeast (human); experiment: co-IP; yeast coexpressing HA-tagged CRISP2 (wildtype or mutant) and FLAG-tagged PSP94 (wildtype or F24G); cell lysate (50 mM Tris-HCl pH 7.5, 100 mM NaCl, 0.1% NP-40, 10% glycerol) and/or concentrated culture medium, anti-HA magnetic beads overnight at 4 °C, Western blot for HA and FLAG; complex reduced in cells grown in 5 mM CaCl2
[3] = target: T2, HA-tagged CRISP2^(L98G Y99P) expressed in yeast (human) (UniProt P16562); experiment: as above
T2 sequence: T1 sequence with L77G, Y78P

[4] = target: T3, CRISP2^(N97P L98G Y99P) triple mutant, His-tagged (human) (UniProt P16562); experiment: MST; 100 nM CAP protein labelled with RED-tris-NTA on its His tag, serial dilution of unlabeled PSP94 or PSP94^F24G; 20 mM Tris pH 7.5, 30 mM NaCl, 0.05% Triton X-100; Monolith NT.115, 80% laser power; triplicates; both purified
T3 sequence (chain, RED-tris-NTA fluorescent label on the His tag): T1 sequence with N76P, L77G, Y78P

[5] = target: T4, CRISP2^(L98G Y99P) double mutant, His-tagged (human) (UniProt P16562); experiment: as above
T4 sequence (chain, RED-tris-NTA fluorescent label on the His tag): T1 sequence with L77G, Y78P

B1: FLAG-tagged PSP94 expressed in yeast (protein, UniProt P08118 21-114)
chain: SCYFIPNEGVPGDSTRKCMDLKGNKHPINSEWQTDNCETCTCYETEISCCTLVSTPVGYDKDNCQRIFKKEDCKYIVVEKKDPKKTCSVSEWII
B1 was tested. Which binding [1] did it give?
Its binding is “no binding (condition: cells grown in 10 mM CaCl2)”.

What about the binding [2] of the same binder?
Its binding is “binds”.

What about the binding [3] of the same binder?
The binding was “binds weakly”.

B2: prostate secretory protein of 94 amino acids (PSP94), C-terminal polyhistidine tag (natural protein, human, UniProt P08118 21-114, looked up)
chain: B1 chain
notes: PSP94 (β-microseminoprotein), human; also called β-microseminoprotein; MSP; source: E. coli BL21, purified (nickel-NTA)
How did the binding [4] turn out when B2 was run?
The binding was “no binding”.

B3: PSP94^F24G, C-terminal polyhistidine tag (protein, UniProt P08118 21-114)
chain: B1 chain with F4G
B3 was tested. Which binding [5] did it give?
Its binding is “no binding”.
